No constants are given. Whether binding was seen depends on the method and setting. Some binding calls cover weakened binding; strength is not graded here.
Target: TRAPPIII complex (Saccharomyces cerevisiae) (UniProt P46944)
Assay: cryo-EM structure; TRAPPIII (after anion exchange) mixed 1:3 with Ypt1-7xHis, overnight at 4°C with calf intestinal alkaline phosphatase, complex isolated by SEC in 10 mM Tris pH 7.5, 350 mM NaCl, 1 mM DTT; 3.7 Å reconstruction; both purified

Protein sequences, listed by entry. Tags and fused reporters are not part of them. Lines headed by an entry give the natural chain unless they say otherwise; changes in a name come on top.
UniProt P46944: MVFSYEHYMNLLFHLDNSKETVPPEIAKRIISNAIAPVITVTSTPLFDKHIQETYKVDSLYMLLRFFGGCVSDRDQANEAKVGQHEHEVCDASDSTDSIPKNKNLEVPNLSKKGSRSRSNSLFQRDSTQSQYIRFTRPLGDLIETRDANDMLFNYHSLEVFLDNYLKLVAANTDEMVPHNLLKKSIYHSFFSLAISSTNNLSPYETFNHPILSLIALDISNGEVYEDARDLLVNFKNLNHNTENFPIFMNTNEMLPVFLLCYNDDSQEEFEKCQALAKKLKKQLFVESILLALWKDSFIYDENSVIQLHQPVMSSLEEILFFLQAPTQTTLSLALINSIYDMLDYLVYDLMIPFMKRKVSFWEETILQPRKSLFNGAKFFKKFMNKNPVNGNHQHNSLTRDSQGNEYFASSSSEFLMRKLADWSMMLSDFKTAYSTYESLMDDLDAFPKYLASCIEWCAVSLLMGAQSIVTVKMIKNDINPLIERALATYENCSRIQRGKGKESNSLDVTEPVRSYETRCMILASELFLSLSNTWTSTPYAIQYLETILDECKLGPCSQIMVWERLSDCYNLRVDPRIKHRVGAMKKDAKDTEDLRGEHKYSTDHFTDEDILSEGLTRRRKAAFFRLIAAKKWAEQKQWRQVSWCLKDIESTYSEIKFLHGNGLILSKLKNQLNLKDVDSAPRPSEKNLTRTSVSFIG

Substance: Rab1/Ypt1 (Ypt1-7xHis) (from UniProt P01123 1-206)
- binding: binds

Reference: paper PMC8204860
